Experimental data from the supplement of paper PMC10126150.
Sequences with one replicate were seen in a single cluster, so their values are uncertain.

system: ATP; assay: switch fluorescence ratio, 500 uM ATP over buffer (Cy3 cluster intensity, sum of 5 cycles each) (fold (ratio)); higher = stronger signal-on switching upon ATP binding; sequences stand for … in TCGTCGGCAGCGTCAGATGTGTATAAGAGACAGTTTTTTTTTTTTTTTTTTTTTTTTT…TC; conditions: aptamer strand: ATP DNA aptamer (quencher-CACCTGGGGGAGTATTGCGGAGGAAGG + anchor), 100 nM annealed; ATP concentration: 500 uM; one replicate
Summary of the method: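 Exposure to 500 uM ATP lasted 15 min at 22 °C before imaging, and a selection-buffer image was taken beforehand, for Cy3-labelled switching-strand clusters on a modified Illumina MiSeq flow-cell annealed to 100 nM quencher-labelled ATP aptamer. Five buffer/ATP cycles were run with NaOH stripping and re-annealing between them. The fluorescence ratio per cluster is summed target-cycle over summed buffer-cycle Cy3 intensity, averaged per switch-domain sequence. Clusters outside 100-1000 RFU were excluded.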

Sequence	switch fluorescence ratio
TATTCGGCGG	1.01
TATTCTATAG	1.03
TATTCTTGTG	1.03
TATTGATAAC	0.984
TATTGATTCG	1.04
TATTGCGTAG	0.942
TATTGCGTTA	1.04
TATTGCGTTG	1
TATTGGACCG	0.967
TATTGGAGTC	1.01
TATTGGCTGT	0.973
TATTGGGCCA	1.02
TATTGGGTCC	0.985
TATTGGTTGG	1.02
TATTGTATAC	1.15
TATTGTTGAG	0.981
TATTTAAACT	1.02
TATTTAACGG	0.976
TATTTACCTG	1.03
TATTTACGGT	1.53
TATTTAGACA	0.997
TATTTATGGC	0.981
TATTTCATGG	1.07
TATTTCCCAG	1.04
TATTTCCCGG	0.967

Sequence	switch fluorescence ratio
TATTTCGGG	0.978
TATTTGAGGC	0.989
TATTTGGCGC	0.984
TATTTGTTTC	1.02
TATTTTAAAG	0.992
TATTTTAGAT	0.979
TCAAAAAATC	1.02
TCAAAAATGG	1
TCAAAAATTA	0.979
TCAAAACACT	1.02
TCAAAGAGCC	1.02
TCAAATATGC	1.05
TCAAATGTAT	1.01
TCAAATTTAC	1.14
TCAACCAAAC	1.17
TCAACGGAAG	1.07
TCAAGAATTC	0.978
TCAAGAGGCA	1.01
TCAAGAGTAG	0.997
TCAAGCCGTC	1.08
TCAAGTCCGT	0.956
TCAAGTTCGG	0.988
TCAATATGGA	0.962
TCAATCATG	1.02
TCAATCCATA	1.01

Sequence	switch fluorescence ratio
TCAATCGCGC	1.11
TCAATTAATG	0.952
TCAATTACAG	1.04
TCAATTGGTT	1.02
TCACAAAAGT	1.02
TCACAAGATG	0.997
TCACAGCGCC	1.06
TCACATTGCT	1.01
TCACCGCATT	2.47
TCACCTAAAT	1.02
TCACCTGGTC	1.09
TCACCTTATG	0.989
TCACGATGAT	1.05
TCACGGGAA	1.06
TCACGGGCCG	1.07
TCACGGTCAA	1.14
TCACGTACGT	1.62
TCACGTAGTT	1.03
TCACTAGGTT	0.988
TCACTCCAAA	1.12
TCACTCTGAT	1
TCACTCTTTA	1.04
TCACTGATGC	0.987
TCACTGGGGT	1.05
TCACTTATG	0.981

Sequence	switch fluorescence ratio
TCAGAACTGG	1.02
TCAGAGTGAG	0.952
TCAGATACTA	1.05
TCAGATGGTA	0.979
TCAGATTTTT	0.931
TCAGCATTTG	1.06
TCAGCCACTA	1.06
TCAGCCTCGC	1
TCAGCGAATC	3.33
TCAGCGGGA	1.02
TCAGCTCAT	1.01
TCAGGAGGAT	0.968
TCAGGATACT	1.04
TCAGGATCGT	0.984
TCAGGCACTC	1.01
TCAGGCAGAA	1
TCAGGCGCAG	0.999
TCAGGCGGTG	1.01
TCAGGGAGAA	0.975
TCAGGGTATT	0.979
TCAGTCCGGT	0.97
TCAGTCGGCA	0.996
TCAGTGTCCT	1.01
TCAGTTCTTA	1.03
TCAGTTTTTA	0.981

Sequence	switch fluorescence ratio
TCATAAATCT	1.01
TCATAAGCGG	1
TCATAGGAGT	1.02
TCATAGGTAG	0.952
TCATAGTTTC	1.03
TCATATGATT	1.01
TCATATTGG	1.02
TCATCAAGT	0.985
TCATCACCCG	1.02
TCATCAGCG	1.09
TCATCATCAA	1.17
TCATCCAGGA	1.03
TCATCCGGAG	2.74
TCATCGTGCT	1.01
TCATCGTGTA	0.996
TCATCTCGTC	1.05
TCATCTGGT	0.991
TCATCTGTA	0.995
TCATGAGCTA	1
TCATGCGCTC	2.38
TCATGCGCTT	1.06
TCATGGTGCG	1.02
TCATGGTTCA	1.02
TCATGTGATC	1.01
TCATTAATAA	0.99

Sequence	switch fluorescence ratio
TCATTATCCT	1.01
TCATTATTTC	0.953
TCATTCACTG	1.11
TCATTGCAGA	1.01
TCATTTCACT	0.95
TCATTTCAGA	1.02
TCATTTGAG	1.04
TCATTTTCGC	0.986
TCCAAAAGCT	1.31
TCCAAATAAG	0.957
TCCAACAGGC	1.17
TCCAACTTGG	1.03
TCCAAGAGGC	1.56
TCCAAGCACC	1.64
TCCAAGCGGT	1.39
TCCAATCTTG	1.03
TCCAATTTAG	1.02
TCCACCCGAT	1.16
TCCACGGTGC	2.16
TCCACGGTGT	2.1
TCCACTGATG	1.01
TCCAGACCG	1.06
TCCAGCACCA	1.14
TCCAGCAGTG	1.19
TCCAGCTGC	1.18

Sequence	switch fluorescence ratio
TCCAGGGGCC	1.14
TCCAGTCACA	1.04
TCCAGTGAAT	1.07
TCCATAGTTT	1.05
TCCATATCGT	1.02
TCCATCCAAC	1.07
TCCATCCCT	1.06
TCCATCGCGG	2.03
TCCATGAGGG	1.02
TCCATGATCT	1.04
TCCATGGTGT	1.7
TCCATTGATC	0.991
TCCATTTACG	1.06
TCCATTTCAG	0.998
TCCCAATAGT	2.05
TCCCATATGA	1.01
TCCCATCCTG	1.02
TCCCCAGCCT	1.31
TCCCCCACGA	5.61
TCCCCCCGTC	0.899
TCCCCCGTGT	1.26
TCCCCTGCTC	1.58
TCCCCTGTCC	1.1
TCCCGAAGTC	1.2
TCCCGAGTTA	1.01

Sequence	switch fluorescence ratio
TCCCGGGCTA	1.13
TCCCGGTGAC	1.82
TCCCGTCGCT	1.11
TCCCTACAGT	1.05
TCCCTCTCGT	1.08
TCCCTTGGCA	1.07
TCCCTTTAGG	1.01
TCCCTTTCAG	1.02
TCCGACATGC	1.09
TCCGACATGT	1.24
TCCGACTCCT	1.88
TCCGAGAAAT	3.64
TCCGAGAGTG	0.969
TCCGAGATAA	1.03
TCCGATATA	1.04
TCCGATCAGA	1.08
TCCGCAATAA	1.26
TCCGCGGAGT	1.07
TCCGCGTGCA	1.17
TCCGGAAGG	1.03
TCCGGCCAG	1.09
TCCGGGCGTT	1.29
TCCGGGTCGG	0.997
TCCGGTAGTA	1.04
TCCGGTCATG	1.04
